For orientation: IC50 means the concentration that gives 50% inhibition.

Drawing on PubChem BioAssay (NCATS), this text covers IC50 for 20 molecules.

The list shows a part of the results. Shown are side measurements of this screen, not its main read-out; they come without a call. The list favours compounds with an active or inconclusive main result. Potencies come from curve fits of mixed quality, noted in brackets.
Tags tell the direction and shape of the fitted curve.

In the experiment the target is Histamine N-methyltransferase (Homo sapiens) (UniProt P50135). Kind of experiment: Confirmatory Screen for Target Class Profiling of Small Molecule Inhibitors of Methyltransferases (AID 1745852).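 Also: inhibitor potency for blocking SAH production.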 The following applies: MTase-Glo luminescence, SAH detection, recombinant enzyme; measured here: HNMT inhibition potency.
Sequence of UniProt P50135 (P50135 whole entry, looked up): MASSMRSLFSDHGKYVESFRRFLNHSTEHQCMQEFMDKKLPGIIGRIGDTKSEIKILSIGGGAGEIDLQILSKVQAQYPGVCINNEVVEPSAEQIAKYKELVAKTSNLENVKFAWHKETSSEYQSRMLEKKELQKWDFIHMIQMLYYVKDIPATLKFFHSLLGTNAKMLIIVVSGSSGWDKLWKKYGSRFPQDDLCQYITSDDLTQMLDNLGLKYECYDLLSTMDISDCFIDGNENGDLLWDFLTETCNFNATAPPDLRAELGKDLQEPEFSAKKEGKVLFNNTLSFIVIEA
For `COc1cccc(CN2CCCC3(CCN(c4cc(C)nc(N)n4)C3)C2)c1OC` (stereo not given), the IC50 is 19.2 µM [falling, partial curve].
Regarding `Cn1nccc1-c1cc2c(cn1)CN(Cc1ccncc1)CCN2`, the IC50 was 35 µM [falling, partial curve].
For the molecule `COc1cc2nc(N3CCCCC3)nc(NC3CCN(C)CC3)c2cc1OC`, the concentration for half-maximal inhibition (IC50) was 7.69 µM [falling, partial curve].
The figure for `COc1ccccc1CC(=O)N1CCCc2ncc(C(=O)Nc3cccc(Cl)c3)cc21` is 15.6 µM [falling, partial curve]; for `c1ccc(CN2CCNc3cnc(Nc4ccc(N5CCOCC5)cc4)cc3C2)cc1` it is 35 µM [falling, partial curve]; for `O=C(CCc1nnc2n(CCc3ccccc3)c(=O)c3ccccc3n12)N1CCC(N2CCCCC2)CC1` it is 3.41 µM [falling, full curve].
The figure for `N#Cc1cc(CN2CCCC(C(=O)Nc3cccc(-c4ccc(F)cc4)c3)C2)c[nH]1` (stereo not given) is 24.1 µM [falling, partial curve]; for `O=C(O)Cn1nnc(-c2ccc(CN(CCCCOc3ccc(CN4CCCC4)cc3)CCc3ccccc3)cc2)n1` it is 12.1 µM [falling, partial curve]; for `CN1CCC(c2c[nH]c3ccc(NC(=O)c4ccc(F)cc4)cc23)CC1` it is 15.2 µM [falling, partial curve].
Then `O=C(CCCc1nnc2n3nc(-c4ccccc4)nc3c3ccccc3n12)NCCN1CCCC1`, with 4.82 µM [falling, full curve].
For the molecule `Cc1cc(N(C)C)ccc1-c1nc2ccc(-c3nc4ccc(N5CCN(C)CC5)cc4[nH]3)cc2[nH]1`, the concentration for half-maximal inhibition (IC50) is 3.83 µM [falling, full curve].
The figure for `Cn1cc(CN2CCCC(COc3ccccc3C(=O)N3CCCCC3)C2)c2ccccc21` (stereo not given) is 21.5 µM [falling, partial curve, poor fit].
In the case of `Cc1nccn1CCC1CCN(c2nccc(-c3ccccn3)n2)CC1`, the IC50 was 19.2 µM [falling, partial curve].
The figure for `CC(C)NC(=O)c1ccccc1OCC1CCCN(Cc2cn(C)c3ccccc23)C1` (stereo not given) is 19.2 µM [falling, partial curve]; for `Cc1[nH]cnc1C1CCN(c2nc3cccc4c3n2CCC4=O)CC1` it is 42.9 µM [falling, single point].
Regarding `Cn1c(=O)n(C)c2cc(S(=O)(=O)N3CCN(C4CCCCC4)CC3)ccc21`, the concentration for half-maximal inhibition (IC50) is 5.41 µM [falling, full curve].
Then `CCN(CC)CCCNC(=O)CCc1nnc2n(Cc3ccc(F)cc3)c(=O)c3ccccc3n12`, with 15.2 µM [falling, partial curve].
The figure for `CNc1cc(C2CC(NC(=O)COc3ccc(Cl)cc3C)C2)nc(N)n1` (stereo not given) is 19.2 µM [falling, partial curve]; for `Cc1ccc(NC(=O)N2CCc3c(c4ccccc4n3CC3CC3)C2)cc1` it is 24.1 µM [falling, single point].
For the molecule `Cc1cc(Nc2ccc(NC(=O)c3ccc(Nc4ccnc5ccccc45)cc3)cc2)nc(N)n1`, the IC50 was 0.341 µM [falling, full curve].
